Results taken from PubChem BioAssay AID588855 (National Center for Advancing Translational Sciences (NCATS), 2011).
The whole screen tested about 410,000 compounds, of which about 5,000 (1.2%) were called active. Inconclusive means that the source gave no clear call. Such entries were picked first, then a sample of the others. The call rests on the fitted dose curve; in most records, active means well fitted inhibition curve with a large enough effect; inconclusive means small, poorly fitted or top-dose-only effect; inactive means no such curve, though single readings can be large or run the other way. A potency beside an inconclusive call is a rough fit, not a confirmed value.

Assay: qHTS for Inhibitors of TGF-b; further: nearly all actives have a fitted effect of over 65% in size
Conditions: HepG2 CAGA-GFP TGF-b/SMAD3 reporter, GFP fluorescence, 18 h, TGF-beta stimulated, 500 pg/mL final; series mostly up to 46.1 µM; activity, negative = inhibition: at the top concentration
In short: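 Using HEPG2 CAGA-GFP reporter cells at 1000 cells/well, we pinned test compounds, stimulated with recombinant TGF-beta (500 pg/mL final) and measured total well GFP after 18 h.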
On the % scale 0 is the no-effect control and ±100 the full control effect; potency means the concentration at half of the fitted maximal effect; tags describe the fitted curve by direction and shape.

| SMILES | Potency | activity, negative = inhibition |
| --- | --- | --- |
| COc1ccc(C(CCN2CCOCC2)c2c(OC)cc(OC)c3c(-c4ccccc4)cc(=O)oc23)cc1 (stereo not given) | inconclusive: 35.5 µM [inhibitor, single point] | – |
| CN(c1cccc(NC(=O)c2ccc(CN3CCc4ccccc4C3)cc2)c1)S(C)(=O)=O | inconclusive: 7.94 µM [inhibitor, partial curve, poor fit] | – |
| O=[N+]([O-])c1cccnc1Oc1ccc(OCc2ccccc2)cc1 | – | inactive: -17.2% |
| CCN(CC)c1ccc(NC(=O)/C=C/c2cc(Br)ccc2OC)cc1 | inconclusive: 25.1 µM [inhibitor, single point] | – |
| Cc1ccc(NC(=O)CSc2nc(C)c(Cc3ccccc3)c(=O)[nH]2)cc1C | active: 8.91 µM | – |
| Cc1cc(C)cc(NC(=O)COC(=O)c2cc(=O)[nH]c(=O)[nH]2)c1 | inconclusive: 35.5 µM [inhibitor, single point] | – |
| OC(c1ccc(Cl)cc1)c1ncc(-c2ccc(Oc3ccccc3)cc2)[nH]1 (stereo not given) | inconclusive: 12.6 µM [inhibitor, single point] | – |
| CCS(=O)(=O)N1Cc2ccccc2CC1C(=O)Nc1ccc(OC)cc1OC (stereo not given) | inconclusive: 6.31 µM [inhibitor, single point] | – |
| C=C(C)COc1ccc(-c2[nH]ncc2-c2ccccc2OC)c(O)c1 | inconclusive: 20 µM [inhibitor, single point] | – |
| COC(=O)c1ccsc1NC(=O)CN1CCN(c2ncccn2)CC1 | – | inactive: 18% |
| COc1ccc(NC(=O)c2ccc3oc(=O)c(S(=O)(=O)c4ccc(C)cc4)cc3c2)cc1OC | – | inactive: -24.7% |
| O=C(COC(=O)CNS(=O)(=O)c1cccc(F)c1)NCCc1ccccc1 | – | inactive: 4.7% |
| COc1cccc(CN(c2ccccc2C(=O)O)S(=O)(=O)c2ccc(C)cc2)c1 | inconclusive: 6.31 µM [inhibitor, single point] | – |
| COc1ccc(NC(=S)NNC(=O)C2CC2c2ccc(C)cc2)cc1 (stereo not given) | inconclusive: 22.4 µM [inhibitor, single point] | – |
| Cc1c(NC(=O)COc2c(F)c(F)c(F)c(F)c2F)c(=O)n(-c2ccccc2)n1C | – | inactive: -27.6% |
| CCOC(=O)C1=C(COC(=O)CCOc2ccc(C)cc2)NC(=O)NC1C (stereo not given) | – | inactive: -3.2% |
| Oc1c(N=Nc2ccc(F)cc2)ccc2ccccc12 | inconclusive: 5.01 µM [inhibitor, partial curve, poor fit] | – |
| CCOc1ccc2nc(SCCNS(=O)(=O)c3ccccc3)sc2c1 | inconclusive: 20 µM [inhibitor, single point] | – |
| CCC1CSC(Nc2ccc(C(=O)/C=C/c3ccc(OC)c(OC)c3)cc2)=N1 (stereo not given) | inconclusive: 14.1 µM [inhibitor, partial curve, poor fit] | – |
| COc1ccc(CCNC(=O)Cn2c(=O)n(-c3ccc(C)c(C)c3)c(=O)c3c(C)c(C)sc32)cc1OC | inconclusive: 2.51 µM [inhibitor, partial curve, poor fit] | – |
| O=C(Nc1ccc2c(c1)OCCO2)C1CCN(C(=O)c2ccc([N+](=O)[O-])cc2)CC1 | inconclusive: 7.08 µM [inhibitor, partial curve] | – |
| O=C(CSc1n[nH]c(=O)[nH]c1=O)N/N=C/c1ccccc1O | inconclusive: 1.26 µM [inhibitor, full curve, poor fit] | – |
| CCOP(=O)(OCC)c1nc(-c2ccccc2)oc1N1CCCCC1 | – | inactive: 2.95% |

| SMILES | Potency | activity, negative = inhibition |
| --- | --- | --- |
| CN(C(=O)c1cccc(NC(=O)Cc2ccc(NC(=O)C3CCCN(C(=O)c4ccccc4)C3)cc2)c1)C1CCCCC1 (stereo not given) | inconclusive: 35.5 µM [inhibitor, single point] | – |
| O=C(CSc1nc2ccccc2o1)Nc1nc2ccc(Br)cc2s1 | inconclusive: 5.62 µM [inhibitor, single point] | – |
| CCOc1cccc(=O)c2c(C)n(C)c(C)c12 | – | inactive: -3.28% |
| O=C(NNC(=S)Nc1cccc(C(F)(F)F)c1)c1ccccc1Cl | active: 14.1 µM | – |
| C[C@H](CO)N1C[C@H](C)[C@@H](CN(C)Cc2ccc3c(c2)OCO3)Oc2c(NS(C)(=O)=O)cccc2C1=O | – | inactive: -3.43% |
| Cc1c(CCC(=O)NCCCn2ccnc2)c(=O)oc2c(C)c3oc4c(c3cc12)CCCC4 | inconclusive: 35.5 µM [inhibitor, single point] | – |
| NC(=NCCc1ccc(Cl)cc1)NS(=O)(=O)c1ccccc1 | – | inactive: 0.66% |
| Brc1ccc2cccnc2c1 | inconclusive: 0.794 µM [inhibitor, partial curve, poor fit] | – |
| CCOc1ccc2nc(NC(=O)CS(=O)(=O)c3ccccc3)sc2c1 | – | inactive: 4.98% |
| CCc1ccc(NC(=O)C2CCC(CNS(=O)(=O)c3ccc4c(c3)CC(C)N4C(C)=O)CC2)cc1 (stereo not given) | – | inactive: -18% |
| S=C(NCc1ccco1)N1CCN(c2ccccc2Cl)CC1 | – | inactive: 11.2% |
| CCCn1c(SC(C)C(=O)NC2CCCC(C)C2C)n[nH]c1=O (stereo not given) | – | inactive: -8.14% |
| Cc1ccccc1OCC(=O)N/N=C/c1cccc(Oc2ccc([N+](=O)[O-])cc2[N+](=O)[O-])c1 | inconclusive: 35.5 µM [inhibitor, single point] | – |
| CC(C)(C)NCc1cc(Br)ccc1OCc1cccs1 | – | inactive: 11.3% |
| Cc1cc(F)ccc1S(=O)(=O)N1CCCOC1CNC(=O)C(=O)NCCc1ccccc1 (stereo not given) | – | inactive: 0% |
| Cc1ccc(Cc2c(-c3ccco3)nc3c4ccccc4ccn23)cc1 | inconclusive: 20 µM [inhibitor, single point] | – |
| CCCN1C(=O)c2[nH]nc(-c3ccccc3O)c2C1c1ccc(OCc2ccccc2)c(OCC)c1 (stereo not given) | inconclusive: 10 µM [inhibitor, partial curve, poor fit] | – |
| Cc1ccc(Cl)cc1NC(=O)CN1C(=O)c2cccc3cccc1c23 | – | inactive: -0.0028% |
| NC(=S)NN=C1CSSC1 | active: 10 µM | – |
| CCOC(=O)c1ccc(-n2ccnc2)c(NC(=O)c2ccc(Cl)cc2)c1 | inconclusive: 3.98 µM [inhibitor, single point] | – |
| CCOC(=O)c1ccc(N2CCN(c3ccccc3F)CC2)c(NC(=O)Nc2ccc(Cl)c(Cl)c2)c1 | – | inactive: -5% |
| CC(C)CSc1nnc(-c2ccccc2)c(-c2ccccc2)n1 | inconclusive: 35.5 µM [inhibitor, single point] | – |
